# Several values for one entry are separate records, joined by “and”; a condition that tells them apart may be missing. Equal entries are not always repeated. The inconclusive results got no clear call from the source; some entries with a clear call stand among them for comparison. For some of these results: A potency beside an inconclusive call is a rough fit, not a confirmed value. Activity calls are given as the source filed them. The call rests on the fitted dose curve; in most records, active means well fitted curve in the direction sought with a large enough effect; inconclusive means small, poorly fitted or top-dose-only effect, or another doubt; inactive means no such curve, though single readings can be large; an effect the other way counts as inactive or inconclusive.
# Tests used:
# [1] = Viability qHTS for spleen associated tyrosine kinase inhibitor (SYKi) naive MV4-11 cells (AID 1963823); conditions: MV4-11 AML viability, CellTiter-Glo luminescence, 72 h; viability (% of control): at 45 µM (top of the series); further: nearly all actives have a fitted effect of over 40% in size
# How it was run: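 qHTS, SYK inhibitor-naive MV4-11; 500 cells/well; 72 hr compound exposure, 37 C; CellTiter-Glo added, 10 min RT; luminescence read.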
# [2] = Viability qHTS for spleen associated tyrosine kinase inhibitor (SYKi) drug resistant MV4-11 cells (AID 1963824); conditions: SYKi-resistant MV4-11 viability, CellTiter-Glo, 72 h; series mostly up to 45 µM; further: nearly all actives have a fitted effect of over 35% in size
# How it was run: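 CellTiter-Glo luminescence, read 10 min after reagent addition, reports viability after a 72 hr compound exposure. Cells are an MV4-11 line made resistant to SYK inhibition, seeded at 500 per well onto compound-containing plates.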
# [3] = Quantitative highthroughput screen to assess conditional lethalithy of NOMO1 cells grown in RPMI1640 with untreated serum (RPMI+s) (AID 1963876); conditions: NOMO1 AML cells in RPMI+serum, CellTiter-Glo viability, 48 h; viability: at 45.8 µM (top of the series); further: nearly all actives have a fitted effect of over 35% in size;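 on Viability: 100% = DMSO wells and 0% = empty wells without cells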
# How it was run: (§1)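 Each medium arm—HPLM with 10% dialyzed FBS, or RPMI1640 with 5 mM glucose and 10% untreated or dialyzed FBS—was screened against an 11-point, 3-fold compound titration for 48 h at 37 °C, with CellTiter-Glo luminescence as endpoint.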
# [4] = Quantitative highthroughput screen to assess conditional lethalithy of P12 Ichikawa cells grown in RPMI1640 with dialyzed fetal bovine serum (RPMI+ds) (AID 1963880); conditions: ATP luminescence, 48 h; Potency: P12-Ichikawa viability; series mostly up to 45.8 µM; further: nearly all actives have a fitted effect of over 35% in size;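 on Viability: 100% = DMSO wells and 0% = empty wells on each plate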
# How it was run: as §1
# [5] = Quantitative highthroughput screen to assess conditional lethalithy of SEM cells grown in RPMI1640 with unreated serum (RPMI+s) (AID 1963883); conditions: SEM B-ALL cells, CellTiter-Glo viability, 48 h; viability: at 45.8 µM (top of the series); further: nearly all actives have a fitted effect of over 35% in size;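 on Viability: 100% = DMSO wells and 0% = empty wells without cells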
# How it was run: as §1
# [6] = Quantitative highthroughput screen to assess conditional lethalithy of SEM cells grown in RPMI1640 with dialyzed fetal bovine serum (RPMI+ds) (AID 1963884); conditions: SEM B-ALL cells, RPMI+dialyzed FBS, CellTiter-Glo viability, 48 h; viability: at 45.8 µM (top of the series); further: nearly all actives have a fitted effect of over 35% in size;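 on Viability: 100% = DMSO control wells and 0% = empty wells without cells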
# How it was run: as §1
# [7] = Quantitative highthroughput screen to assess conditional lethalithy of NOMO1 cells grown in RPMI1640 with dialyzed fetal bovine serum (RPMI+ds) (AID 1963877); conditions: NOMO1 in RPMI+dialyzed FBS viability, ATP luminescence, 48 h; series mostly up to 45.8 µM; further: nearly all actives have a fitted effect of over 30% in size;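 on Viability: 100% = DMSO control wells and 0% = empty wells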
# How it was run: as §1
# [8] = Quantitative highthroughput screen to assess conditional lethalithy of NOMO1 cells grown in Human Plasma-Like Medium with dialyzed fetal bovine serum (HPLM+ds) (AID 1963878); conditions: NOMO1 AML cells in HPLM+ds, CellTiter-Glo viability, 48 h; viability: at 45.8 µM (top of the series); further: nearly all actives have a fitted effect of over 35% in size
# How it was run: as §1
# [9] = Quantitative highthroughput screen to assess conditional lethalithy of P12 Ichikawa cells grown in Human Plasma-Like Medium with dialyzed fetal bovine serum (HPLM+ds) (AID 1963879); conditions: ATP luminescence, 48 h; Potency: viability; series mostly up to 45.8 µM; further: nearly all actives have a fitted effect of over 35% in size
# How it was run: as §1
# [10] = Quantitative highthroughput screen to assess conditional lethalithy of P12 Ichikawa cells grown in RPMI1640 with untreated serum (RPMI+s) (AID 1963881); conditions: ATP luminescence, 48 h; Potency: viability; series mostly up to 45.8 µM; further: nearly all actives have a fitted effect of over 35% in size
# How it was run: as §1
# [11] = Quantitative highthroughput screen to assess conditional lethalithy of SEM cells grown in Human Plasma-Like Medium with dialyzed fetal bovine serum (HPLM+ds) (AID 1963882); conditions: SEM B-ALL cells in HPLM+ds, CellTiter-Glo viability, 48 h; series mostly up to 45.8 µM; further: nearly all actives have a fitted effect of over 35% in size
# How it was run: as §1
# [12] = Cellular viability qHTS for adrenocortical cancer (ACC) cell line NCI-H295R (AID 1963990); conditions: CellTiter-Glo ATP luminescence, 48 h; activity change, negative = viability loss: at 46.1 µM (top of the series); further: nearly all actives have a fitted effect of over 60% in size
# How it was run: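 Luminescent ATP read-out (CellTiter-Glo, 20 min RT) after 48 h drug exposure of NCI-H295R cells; a titration up to 46 uM final. Data normalized to doxorubicin (100% inhibition) and DMSO (0%); 4-parameter fit gives IC50, max response.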
# [13] = Cellular viability qHTS for adrenocortical cancer (ACC) cell line SW-13 (AID 1963989); conditions: SW-13 ACC cells viability, CellTiter-Glo, 48 h; activity (max response): stronger effect = lower value; further: nearly all actives have a fitted effect of over 65% in size
# How it was run: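 SW-13 cells in ITS-supplemented serum-free DMEM were plated overnight, then exposed for 48 h at 37C to compound titrations (up to 46 uM final). Viability was read by CellTiter-Glo luminescence; four-parameter logistic fits gave IC50 and efficacy.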
# Potency means the concentration at half of the fitted maximal effect; tags describe the fitted curve by direction and shape.
structure (smiles),measurement,setting,value
O=P(O)(O)C(O)(Cn1ccnc1)P(=O)(O)O,viability (% of control),[1],inactive: 79.2% [at 4.97 µM]
same,"viability, % of control",[2],inactive: 89.7% [at 4.97 µM]
same,Potency,[3],inactive
same,Potency,[4],inactive
same,Potency,[5],inactive
same,Potency,[6],inactive
Cc1cc(Nc2nc(N[C@@H](C)c3ncc(F)cn3)ncc2Cl)n[nH]1,Potency,[1],"inconclusive: 461 nM [cytotoxic, full curve] and inconclusive: 590 nM [cytotoxic, full curve]"
same,Potency,[2],"inconclusive: 920 nM [cytotoxic, full curve]"
same,Potency,[7],"inconclusive: 9.35 µM [cytotoxic, full curve]"
same,Potency,[8],"inconclusive: 1.66 µM [cytotoxic, full curve]"
same,Potency,[9],"inconclusive: 3.72 µM [cytotoxic, full curve]"
same,Potency,[4],"inconclusive: 7.43 µM [cytotoxic, full curve]"
same,Potency,[10],"inconclusive: 23.5 µM [cytotoxic, partial curve]"
same,Potency,[11],active: 5.26 µM
same,Potency,[12],"inconclusive: 14.1 µM [cytotoxic, partial curve]"
COc1ccc(-c2nc(N3CCOCC3)c3sc(CN(C)c4ncc(C(=O)NO)cn4)cc3n2)cn1,Potency,[1],"inconclusive: 9.2 nM [cytotoxic, full curve] and active: 14.8 nM"
same,Potency,[2],"inconclusive: 9.2 nM [cytotoxic, full curve]"
same,Potency,[3],active: 0.0209 µM
same,Potency,[5],active: 0.0074 µM
COc1ncc(-c2ccc3c(Nc4cc(Oc5cc(F)cc(F)c5)cc(C(=O)O)c4)c(S(=O)(=O)NC4CC4)cnc3c2)c(OC)n1,Potency,[1],"inconclusive: 18.6 µM [cytotoxic, partial curve]"
same,Potency,[2],"inactive and inconclusive: 33.2 µM [cytotoxic, single point]"
same,Potency,[3],inactive
same,Potency,[5],inactive
same,Potency,[6],inactive
same,Potency,[13],"inconclusive: 28.2 µM [cytotoxic, single point]"
Nc1ncnc2ccccc12,Potency,[1],inactive
same,Potency,[2],inactive
same,Potency,[7],inactive
CCOc1cc(CC(=O)N[C@@H](CC(C)C)c2ccccc2N2CCCCC2)ccc1C(=O)O,Potency,[1],"inconclusive: 33.2 µM [cytotoxic, single point]"
same,Potency,[2],inactive
same,Potency,[7],"inconclusive: 0.526 µM [cytotoxic, full curve]"
same,Potency,[8],"inconclusive: 0.296 µM [cytotoxic, full curve]"
same,Potency,[4],active: 3.32 µM
same,Potency,[11],inactive
same,Potency,[5],inactive
same,Potency,[6],inactive
same,Potency,[13],"inconclusive: 35.5 µM [cytotoxic, single point]"
CN(C)c1ccc2nc3ccc(=[N+](C)C)cc-3sc2c1,Potency,[1],"inconclusive: 296 nM [cytotoxic, full curve] and inconclusive: 944 nM [cytotoxic, full curve]"
same,Potency,[2],active: 372 nM and active: 841 nM
same,Potency,[7],active: 6.62 µM
same,Potency,[8],active: 8.33 µM
same,Potency,[4],active: 7.43 µM
same,Potency,[10],active: 5.9 µM
same,Potency,[5],"inconclusive: 20.9 µM [cytotoxic, partial curve, poor fit]"
same,Potency,[6],"inconclusive: 16.6 µM [cytotoxic, partial curve, poor fit]"
COc1cc(Nc2nc3ccccc3nc2NS(=O)(=O)c2ccc(NC(=O)c3ccc(C)c(OC)c3)cc2)cc(OC)c1,Potency,[1],"inconclusive: 11.6 µM [cytotoxic, partial curve, poor fit] and active: 18.6 µM"
same,Potency,[2],"inconclusive: 16400 nM [cytotoxic, partial curve, poor fit]"
same,Potency,[7],active: 7.43 µM
same,Potency,[8],"inconclusive: 13.2 µM [cytotoxic, partial curve]"
same,Potency,[9],active: 5.9 µM
same,Potency,[10],"inconclusive: 6.62 µM [cytotoxic, partial curve]"
same,Potency,[11],"inconclusive: 5.9 µM [cytotoxic, partial curve]"
same,Potency,[5],"inconclusive: 2.96 µM [cytotoxic, partial curve]"
same,Potency,[6],"inconclusive: 14.8 µM [cytotoxic, partial curve]"
Cc1cnc(Nc2ccc(CN3CCOCC3)cc2)nc1Nc1cccc(S(=O)(=O)NC(C)(C)C)c1,Potency,[1],"inconclusive: 0.263 µM [cytotoxic, full curve]"
same,Potency,[2],active: 372 nM and active: 326 nM
same,Potency,[7],active: 4.69 µM
same,Potency,[8],active: 4.69 µM
same,Potency,[9],active: 2.96 µM
same,Potency,[10],active: 4.18 µM
same,Potency,[11],active: 0.743 µM
COc1cc2nc(N3CCN(C(=O)C4COc5ccccc5O4)CC3)nc(N)c2cc1OC (stereo not given),Potency,[1],"inconclusive: 21.1 µM [cytotoxic, single point]"
same,Potency,[2],"inconclusive: 21100 nM [cytotoxic, single point]"
same,Potency,[7],"inconclusive: 11.8 µM [cytotoxic, full curve, poor fit]"
same,Potency,[8],"inconclusive: 14.8 µM [cytotoxic, partial curve]"
same,Potency,[9],"inconclusive: 20.9 µM [cytotoxic, single point]"
same,Potency,[4],inactive
same,Potency,[6],inactive
same,Potency,[13],"inconclusive: 18.4 µM [cytotoxic, single point]"
same,Potency,[12],"inconclusive: 29.1 µM [cytotoxic, single point]"
